Source: PubChem BioAssay (Tox21)
Where “and” joins values, the source holds several entries; their conditions need not be identical. Equal entries are not always repeated. The shares of active, inactive and inconclusive entries below differ from those in the screen. Potencies beside an inconclusive call are fits to weak or partial responses and may not hold up. Calls of active or inactive are those of the source. Calls come from the whole dose curve; as a rule, active = well fitted curve in the direction sought with a large enough effect in the repeat runs; inconclusive = weak or mixed curves; inactive = no such curve, though single readings can be large; an effect the other way counts as inactive or inconclusive.

Assay: Caspase-3/7 induction in CHO-K1 cells by small molecules, qHTS cell viability counter screen (AID 1346979); note: nearly all actives have a fitted effect of over 35% in size
Conditions: CellTiter-Fluor fluorescence, 17 h; series mostly up to 92.4 µM; activity change, negative = cytotoxicity: at the top concentration
Outline: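 Wild-type CHO-K1 cells (1,500/well) treated with compound after 5 h plating; after 16 h at 37C, viability read as CellTiter-Fluor fluorescence following 1 h reagent incubation, in the same wells as the caspase read.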
% is set by controls: 0 for no effect and ±100 for the full control effect; potency is the fitted concentration of half-maximal effect; tags give direction and shape of the fitted curve.

Structure (SMILES)	activity change, negative = cytotoxicity	Potency
CCC(=O)/C=C/c1ccc(OC)cc1	inactive: 1.18%	–
CC(COC(C)(C)C)OCCCO (stereo not given)	–	inconclusive: 68.6 µM [cytotoxic, single point]
CCCCOc1cc(C(=O)NCCN(CC)CC)c2ccccc2n1	–	inconclusive: 29.8 µM [cytotoxic, partial curve, poor fit]
CCC(C(=O)O)c1ccc(N2Cc3ccccc3C2=O)cc1 (stereo not given)	–	inconclusive: 18.8 µM [rising, partial curve]
O=C(C1CCCCC1)N1CC(=O)N2CCc3ccccc3C2C1 (stereo not given)	–	inconclusive: 76.8 µM [cytotoxic, partial curve, poor fit]
O=C(NCc1ncc(C(F)(F)F)cc1Cl)c1c(Cl)cccc1Cl	inactive: -12.1%	–
[O-][N+](=Nc1ccccc1)c1ccccc1	–	inconclusive: 61.1 µM [cytotoxic, partial curve, poor fit]
O=P(c1ccccc1)(c1ccccc1)c1ccccc1	inactive: 4.64%	–
OCC(O)CS (stereo not given)	–	inconclusive: 18.8 µM [rising, partial curve]
Nc1ccn([C@H]2CC[C@@H](CO)O2)c(=O)n1	–	inconclusive: 67.4 µM [rising, partial curve, poor fit]
CCC(C)C(C)=O (stereo not given)	inactive: 0.612%	–
Cc1ccc(N(C)C)cc1	–	inactive
CCN(CC)c1ccc(N=Nc2ccccc2)cc1	–	active: 48.6 µM
CC(C)SCc1ccco1	inactive: 4.5% [at 42.5 µM]	–
O=[N+]([O-])c1ccc(/C=C/c2ccc([N+](=O)[O-])cc2S(=O)(=O)O)c(S(=O)(=O)O)c1	–	inconclusive: 68.6 µM [cytotoxic, partial curve, poor fit]
CC(=O)CC(=O)c1ccccc1	inactive: 2.94%	–
Nc1ccc(Cl)c([N+](=O)[O-])c1	–	active: 54.5 µM
Fc1ccccc1-c1ccccc1	inactive: 4.16%	–
O=C(O)c1ccc(S(=O)(=O)O)cc1C(=O)O	inactive: -0.675%	–
CCCCC(CC)CO (stereo not given)	–	inactive

Structure (SMILES)	activity change, negative = cytotoxicity	Potency
NCCCOCCOCCOCCCN	–	inconclusive: 68.6 µM [cytotoxic, single point]
CCCCCCCCCCCCC(=O)O	–	inconclusive: 77.2 µM [cytotoxic, single point]
c1cc(CN2CCCCC2)cc(OCCCNc2nc3ccccc3s2)c1	–	inconclusive: 33.5 µM [cytotoxic, single point]
Nc1ccc(F)c([N+](=O)[O-])c1	inactive: -1.71%	–
CCN(Cc1cccc(S(=O)(=O)O)c1)c1ccc(C(=C2C=CC(=[N+](CC)Cc3cccc(S(=O)(=O)[O-])c3)C=C2)c2ccccc2)cc1	–	inconclusive: 48.2 µM [cytotoxic, single point]
CCCS(=O)c1ccc2nc(NC(=O)OC)[nH]c2c1 (stereo not given)	–	inconclusive: 29.8 µM [cytotoxic, single point]
Cc1ccnc(N)c1	–	inconclusive: 68.6 µM [cytotoxic, single point]
CCN1CC(CCN2CCOCC2)C(c2ccccc2)(c2ccccc2)C1=O (stereo not given)	–	inconclusive: 18.8 µM [cytotoxic, partial curve, poor fit]
CO[Si](OC)(c1ccccc1)c1ccccc1	–	inconclusive: 77 µM [cytotoxic, single point]
Cc1cncc(C)c1	inactive: -2.83%	–
Nc1nc(N)c(-c2ccccc2)s1	–	inconclusive: 33.5 µM [rising, partial curve, poor fit]
CC(C)(C)[C@@H](O)[C@@H](Cc1ccc(Cl)cc1)n1cncn1	–	inconclusive: 68.5 µM [cytotoxic, single point]
[O]=[Bi]	inactive: -0.807% [at 8.39 µM]	–
NNS(=O)(=O)c1ccc(Oc2ccc(S(=O)(=O)NN)cc2)cc1	inactive: 6.72%	–
O=C(O)CC(C(=O)O)C(CC(=O)O)C(=O)O (stereo not given)	–	inconclusive: 60.1 µM [rising, partial curve, poor fit]
COc1ccc2nc(NC(=O)Nc3ccccc3)sc2c1	–	inconclusive: 33.5 µM [cytotoxic, single point]
CC(C)(c1ccc(Oc2ccc3c(c2)C(=O)OC3=O)cc1)c1ccc(Oc2ccc3c(c2)C(=O)OC3=O)cc1	–	inconclusive: 68.2 µM [cytotoxic]
COC(=O)[C@H]1[C@H]2C[C@@H]3c4[nH]c5cc(OC)ccc5c4CCN3C[C@H]2C[C@@H](OC(=O)COc2ccc(OC)cc2)[C@@H]1OC	inactive: 9.61% [at 42.5 µM]	–
Nc1ccccc1[N+](=O)[O-]	–	inactive

Assay: Caspase-3/7 induction in CHO-K1 cells by small molecules, qHTS assay (AID 1346980); note: nearly all actives have a fitted effect of over 15% in size
Conditions: CHO-K1 caspase-3/7 induction, Caspase-Glo luminescence, 17 h; series mostly up to 92.4 µM; caspase-3/7 activation: at the top concentration
Outline: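 Luminescent Caspase-Glo 3/7 read (30min, room temperature) quantified apoptosis induction. Cells were wild-type CHO-K1, treated with compound for 17hr at 37 C and 5% CO2.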

Structure (SMILES)	Potency	caspase-3/7 activation
O=C(NCc1ncc(C(F)(F)F)cc1Cl)c1c(Cl)cccc1Cl	inconclusive: 21.7 µM [activator, partial curve]	–
CCC(C)C(C)=O (stereo not given)	–	inactive: 0.925%
NNS(=O)(=O)c1ccc(Oc2ccc(S(=O)(=O)NN)cc2)cc1	–	inactive: -1.14%
COC(=O)[C@H]1[C@H]2C[C@@H]3c4[nH]c5cc(OC)ccc5c4CCN3C[C@H]2C[C@@H](OC(=O)COc2ccc(OC)cc2)[C@@H]1OC	–	inactive: 0.46% [at 42.5 µM]

Assay: Caspase-3/7 induction in HepG2 cells by small molecules, qHTS cell viability counter screen (AID 1346981); note: nearly all actives have a fitted effect of over 30% in size
Conditions: CellTiter-Fluor fluorescence, 17 h; series mostly up to 92.4 µM; activity change, negative = cytotoxicity: at the top concentration
Outline: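 Multiplexed with the caspase-3/7 assay: HepG2 cells, 16 hr compound treatment, CellTiter-Fluor viability detection by fluorescence.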

Structure (SMILES)	activity change, negative = cytotoxicity	Potency
CC(COC(C)(C)C)OCCCO (stereo not given)	inactive: -0.3%	–
CCCCOc1cc(C(=O)NCCN(CC)CC)c2ccccc2n1	–	inconclusive: 37.6 µM [cytotoxic, partial curve, poor fit]
O=C(NCc1ncc(C(F)(F)F)cc1Cl)c1c(Cl)cccc1Cl	inactive: -5.6%	–
O=P(c1ccccc1)(c1ccccc1)c1ccccc1	inactive: 1.22%	–
OCC(O)CS (stereo not given)	–	inactive
CCC(C)C(C)=O (stereo not given)	inactive: -0.888%	–
CC(C)SCc1ccco1	–	inconclusive: 10.8 µM [cytotoxic, partial curve, poor fit]
O=[N+]([O-])c1ccc(/C=C/c2ccc([N+](=O)[O-])cc2S(=O)(=O)O)c(S(=O)(=O)O)c1	–	inconclusive: 77 µM [cytotoxic, single point] and inconclusive: 24.3 µM [cytotoxic, partial curve]
Fc1ccccc1-c1ccccc1	inactive: 0.635%	–
O=C(O)c1ccc(S(=O)(=O)O)cc1C(=O)O	–	inconclusive: 0.194 µM [cytotoxic, full curve]
c1cc(CN2CCCCC2)cc(OCCCNc2nc3ccccc3s2)c1	–	inconclusive: 29.8 µM [cytotoxic]
Nc1ccc(F)c([N+](=O)[O-])c1	inactive: -0.747%	–
CCN(Cc1cccc(S(=O)(=O)O)c1)c1ccc(C(=C2C=CC(=[N+](CC)Cc3cccc(S(=O)(=O)[O-])c3)C=C2)c2ccccc2)cc1	–	inconclusive: 42.9 µM [cytotoxic, partial curve, poor fit]
Cc1ccnc(N)c1	–	inconclusive: 68.6 µM [cytotoxic, single point]
CCN1CC(CCN2CCOCC2)C(c2ccccc2)(c2ccccc2)C1=O (stereo not given)	inactive: -6.64% [at 42.5 µM]	–
O=C(O)CC(C(=O)O)C(CC(=O)O)C(=O)O (stereo not given)	–	inconclusive: 24.3 µM [cytotoxic, single point]
COc1ccc2nc(NC(=O)Nc3ccccc3)sc2c1	–	inconclusive: 21.1 µM [cytotoxic, partial curve]
